Results reported in PMC4336329 (PLoS ONE, 2015).
Hit rate of the full screen: of about 310,000 compounds, about 14,000 (4.5%) showed an effect of 50% or more. Effects have a minus sign here. The list shows a part of the results.

target: human ether-à-go-go-related gene (hERG) potassium channel (human, UniProt Q12809); assay: primary screen, population patch clamp on CHO cells stably expressing hERG
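Also: peak tail current of the secondary pulse compared with the same well before compound.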

human ether-à-go-go-related gene (hERG) potassium channel, sequence (Q12809 whole entry, looked up): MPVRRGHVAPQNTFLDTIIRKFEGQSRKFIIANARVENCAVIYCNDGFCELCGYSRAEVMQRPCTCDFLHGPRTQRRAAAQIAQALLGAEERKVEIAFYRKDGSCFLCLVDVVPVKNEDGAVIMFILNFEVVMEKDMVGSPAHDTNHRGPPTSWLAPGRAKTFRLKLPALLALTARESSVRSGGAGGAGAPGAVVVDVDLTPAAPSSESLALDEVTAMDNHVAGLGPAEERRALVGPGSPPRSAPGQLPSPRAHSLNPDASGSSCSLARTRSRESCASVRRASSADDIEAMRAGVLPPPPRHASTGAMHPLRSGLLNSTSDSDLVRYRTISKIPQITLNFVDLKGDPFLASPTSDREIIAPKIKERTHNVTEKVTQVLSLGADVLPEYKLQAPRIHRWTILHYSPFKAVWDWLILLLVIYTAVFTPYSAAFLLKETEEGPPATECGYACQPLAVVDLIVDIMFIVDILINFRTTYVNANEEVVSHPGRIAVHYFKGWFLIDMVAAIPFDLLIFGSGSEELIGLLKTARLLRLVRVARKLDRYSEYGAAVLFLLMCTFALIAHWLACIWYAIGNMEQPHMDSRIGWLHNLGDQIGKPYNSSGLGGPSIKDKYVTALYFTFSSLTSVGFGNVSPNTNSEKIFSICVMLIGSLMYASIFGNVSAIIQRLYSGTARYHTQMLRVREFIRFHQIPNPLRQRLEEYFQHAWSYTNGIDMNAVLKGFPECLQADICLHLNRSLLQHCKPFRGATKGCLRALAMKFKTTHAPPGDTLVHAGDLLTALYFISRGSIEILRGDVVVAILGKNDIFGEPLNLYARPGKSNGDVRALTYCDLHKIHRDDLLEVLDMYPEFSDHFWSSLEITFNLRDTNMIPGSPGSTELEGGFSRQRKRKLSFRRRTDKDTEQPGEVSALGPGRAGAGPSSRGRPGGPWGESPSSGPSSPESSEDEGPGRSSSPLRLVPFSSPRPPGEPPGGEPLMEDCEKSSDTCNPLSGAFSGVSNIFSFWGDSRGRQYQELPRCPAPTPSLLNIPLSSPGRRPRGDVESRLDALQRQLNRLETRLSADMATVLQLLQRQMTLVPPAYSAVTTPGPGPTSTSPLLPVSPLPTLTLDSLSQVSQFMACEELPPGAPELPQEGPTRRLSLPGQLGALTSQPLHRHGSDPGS

SMILES | hERG current change (%, negative = inhibition) at 10uM
COc1cc(C)ccc1OCCOCCOc1ccccc1Br | 1.75%
CC(=O)n1cc(N(C(=O)CCl)c2ccccc2)c2ccccc21 | 1.19%
CC1CN(CCOc2ccccc2[N+](=O)[O-])CC(C)O1.O=C(O)C(=O)O (stereo not shown) | 3.11%
Cc1ccc(C)c(CN2C(=O)c3ccccc3S(=O)c3ccc(C(=O)N4CCN(c5ccccn5)CC4)cc32)c1 (stereo not shown) | 12.9%
O=C(Nc1ccc(Cl)cc1)Nc1cnccn1 | 11.8%
COc1ccc(NC(=O)c2ccccc2SC)c(OC)c1 | -2.15%
Nc1ncnc(N(c2ccccc2)C2CCCCC2)c1[N+](=O)[O-] | 14.1%
Cc1c(C)[n+](=O)c2c(n1[O-])C(Br)CCC2Br (stereo not shown) | 5.34%
COc1ccc(S(=O)(=O)N2CCCC(C(=O)Nc3cccc(C(C)=O)c3)C2)cc1 (stereo not shown) | -21.1%
O=c1[nH]c(Nc2ccccc2)cc2cc(Br)ccc12 | 17%
CCc1cccc(NC(=O)CCNS(=O)(=O)c2ccc3c(c2)oc(=O)n3C)c1 | 6.45%
CC1Cc2ccccc2N1C(=O)c1ccc2c(c1)nnn2C (stereo not shown) | -6.1%
Cc1ccc(NC(=S)Nc2ccc(F)cc2)cc1C | 7.56%
N#Cc1nc(/C=C/c2ccccc2)oc1NCCCN1CCOCC1 | -36.2%
Cc1cc(-c2csc(N)n2)c(C)n1-c1ccc(Cl)c(Cl)c1 | 11.8%
Cc1[nH]c2ccccc2c1Cc1nnc(SCc2ccccc2)o1 | 6.41%
CCc1ccc(N2CC(C(=O)OCC(=O)Nc3cc(C)on3)CC2=O)cc1 (stereo not shown) | -18.2%
COc1cccc(OC)c1OCCNCC1CSc2ccccc2O1.Cl (stereo not shown) | -53.6%
COC(=O)CN(c1cc(Cl)ccc1OC)S(=O)(=O)c1ccc(C)cc1 | -0.0949%
COc1ccc(/C=N/NC(=O)COc2ccccc2-c2ccccc2)cc1 | 3.37%
COc1ccc(-c2oc3ccccc3c2C(=O)OCc2ccc([N+](=O)[O-])cc2)cc1 | 8.57%
Cn1c(=O)c2c(nc(NCCCO)n2Cc2cccc(C(F)(F)F)c2)n(C)c1=O | -6.7%

SMILES | hERG current change (%, negative = inhibition) at 10uM
CCN(CC)C(=O)c1ccc2c(c1)C1C(Cl)C(Sc3ccccc3[N+](=O)[O-])CC1C(C(=O)O)N2 (stereo not shown) | -59.3%
CCOC(=O)N1CCN(c2ccc(C(=O)c3cccc(F)c3)cc2)CC1 | -40.2%
O=C(NCc1nnc(SCC(=O)N2CCCC2)o1)c1c(F)cccc1F | 10.8%
COc1ccccc1N(CC(=O)Nc1ccc(F)c(F)c1)S(C)(=O)=O | -1.01%
CCOc1nc(NC(C)C)nc(N2CC3CC(C2)c2cccc(=O)n2C3)n1 (stereo not shown) | 3.34%
Cc1sc2ncn(CC(=O)NCc3ccccc3)c(=O)c2c1C | 5.34%
C=CCNC(=O)COC(=O)c1ccc(Sc2nncn2C)c([N+](=O)[O-])c1 | 25%
Cc1ccn2c(C(=O)CSc3ccc(Cl)cc3Cl)c(C)nc2c1 | 20.9%
CSc1sccc1/C=N/NC(=O)c1ccncc1 | -0.626%
O=C(N/N=C/c1cccc(O)c1)C(=O)N1CCCCCC1 | 24.6%
O=C(CCC(=O)Nc1nnc(C2CCCCC2)s1)NCc1cccs1 | -5.27%
CSc1nc(C)nc(N/C=C(\C#N)S(=O)(=O)c2ccccc2Cl)n1 | 2.68%
Cc1cc(-c2nn3c(-c4ccccc4)nnc3s2)c2ccccc2n1 | 9.47%
CCOC(=O)C1(Cc2ccccc2C)CCCN(C(=O)c2cc(CC)nn2C)C1 (stereo not shown) | -8.8%
O=[N+]([O-])c1ccc(NC(=S)NCCc2ccc(F)cc2)cc1 | -11.8%
CN(C(=O)COC(=O)CCC1CCCCC1)c1c(N)n(Cc2ccccc2)c(=O)[nH]c1=O | 16.5%
Cc1cc(C)n(Cc2ccccc2F)c(=O)c1C#N | -1.33%
CCC(C)C(=O)Nc1nc2c(s1)C(=O)CC(C)(C)C2 (stereo not shown) | -12.7%
COC(=O)c1c(C(=O)OC)n(CCCN)c2ccc(C)cc12.Cl | -77%
CCc1nnc(NC(=O)CSc2nc3c([nH]c4ccccc43)c(=O)n2CCOC)s1 | -6.31%
COC(=O)c1ccc(Nc2cc(C)nc3ccc(C)cc23)cc1.Cl | -55.6%
O=C1C=C(Nc2ccccc2O)c2ccccc2C1=O | -5.44%

SMILES | hERG current change (%, negative = inhibition) at 10uM
Cc1cc(C)n(CCCNC(=O)CCNS(=O)(=O)c2ccccc2C(F)(F)F)n1 | 10.6%
C=CCNC(=O)C1CCN(S(=O)(=O)c2ccc(Br)cc2)CC1 | -58.7%
Cc1ccc(NC(=O)CN(C)C(=O)CSc2n[nH]c(N)n2)cc1 | -2.07%
COc1ccc(OCc2cc(C(=O)O)c(C)o2)cc1 | 2.69%
CCOC(=O)Cn1c(=NC(=O)CC)sc2c(C)cc(C)cc21 | 13.9%
Cc1ccc(S(=O)(=O)NNC(=O)Nc2cccc(C)c2C)c(C)c1 | 4.56%
Cc1cc(F)ccc1NS(=O)(=O)c1c(C)nc2scc(C)n2c1=O | -35.8%
C[C@@]12C(=O)N(Cc3ccccc3)CC(=O)N1[C@H]1c3ccccc3OC[C@@H]1[C@@H]2c1ccccc1 | 3.84%
CCN(CC)S(=O)(=O)c1ccc(N2CCCCC2)c(NC(=O)/C=C/c2cc(OC)c(OC)c(OC)c2)c1 | 7.15%
Cc1cccc2cc(C3CC(c4ccco4)=NN3S(C)(=O)=O)c(Cl)nc12 (stereo not shown) | -29.9%
CCOc1cc(C2c3c(-c4ccccc4)n[nH]c3C(=O)N2c2ccc(C(=O)O)cc2)ccc1O (stereo not shown) | 6.07%
Cc1ccnc(NC(=O)CCC(=O)N(CC(=O)NC2CCCCC2)Cc2ccccc2)c1 | -8.18%
CCCN1CCN(C(=O)Nc2cccc(C(F)(F)F)c2)CC1 | -36%
Cc1cc(C)nc(SCC(=O)c2ccc(O)cc2O)n1 | -1.33%
CCC1Oc2ccc(C)cc2N(CC(=O)N(Cc2ccc(C)o2)C2CC(C)(C)NC(C)(C)C2)C1=O (stereo not shown) | -26.9%
COc1ccc(C[C@H]2CN3C(=NC[C@H]3Cc3ccccc3)N2CCNC(=O)c2ccc(C)c(Br)c2)cc1 | -69%
COc1ccc(C(=O)O/N=C(\N)c2ccc(OC)c(OC)c2)cc1 | -18.6%
Cn1c(SCC(=O)Nc2cccc(F)c2)nc2c(c1=O)SCC2 | 9.04%
CN(C)S(=O)(=O)c1cccc(C(=O)Nc2ccc(S(=O)(=O)N3CCCC3)cc2)c1 | 25.5%
Cc1csc(=O)n1CC(=O)OC(C)C(=O)Nc1ccc(F)c(F)c1F (stereo not shown) | -4.29%
CC(CCc1ccccc1)NC(=O)c1ccc(Br)o1 (stereo not shown) | -18.8%
c1cnc(N2CCSCC2)nc1 | 0.773%

SMILES | hERG current change (%, negative = inhibition) at 10uM
Cn1nnnc1SCC(=O)Nc1ccccc1Br | 12.3%
COc1ccc(-c2nc(SCc3ccc(C#N)cc3)[nH]c(=O)c2C#N)cc1 | 11.3%
COc1ccc(NC(=O)c2cc(-c3ccc(C)c(C)c3O)n[nH]2)cc1Cl | 34.9%
COc1cc(OC)cc(C(=O)N[C@H](C(=O)NCc2cccs2)C(C)C)c1 | -5.96%
OCCN(CCO)CC(O)COc1ccc(Br)cc1 (stereo not shown) | 3.82%
OCC1CO1 (stereo not shown) | 15.8%
CCn1c(=O)cc(SCC(=O)Nc2cc(OC)c(OC)c(OC)c2)c2ccccc21 | -39.8%
O=C(NCCc1c[nH]c2ccccc12)C1CCN(c2nnc(N3CCCC3=O)s2)CC1 | 8.42%
CC(=O)Nc1ccc(S(=O)(=O)NCc2csc(C)n2)cc1 | 6.2%
O=C(CCC(=O)c1cccs1)OCC(=O)N1CCN(S(=O)(=O)c2ccccc2)CC1 | -24.1%
CC(C)CCN(CC(=O)NCc1ccc(F)cc1)S(=O)(=O)c1ccccc1F | -5.71%
CCOc1ccc(N2C(=O)CC(NCCc3ccc(S(N)(=O)=O)cc3)C2=O)cc1 (stereo not shown) | -22%
CCn1c(C)nc2cc(C#N)ccc21 | 7.06%
Cc1[nH]n(C(N)=S)c(=O)c1N=Nc1cccc(Cl)c1 | 15.9%
COc1ccc(C2Nc3ccccc3NC3=C2C(=O)CC(C)(C)C3)cc1OC (stereo not shown) | 13%
O=C(O)c1ccc(N(c2ccccc2)c2ccccc2)cc1 | 2.69%
O=C(Cc1cccs1)Nc1nc2ccccc2s1 | 3.57%
CC(NC(=O)Cn1cnc2c1c(=O)n(C)c(=O)n2C)c1ccccc1 (stereo not shown) | -0.782%
O=C(COC(=O)c1cccnc1Nc1cccc(C(F)(F)F)c1)NC1CCS(=O)(=O)C1 (stereo not shown) | -16.1%
NC(=O)C1(c2ccccc2)CCC(=O)N1c1ccccc1 (stereo not shown) | 11.3%
COc1ccc(NC(=O)c2scc(S(=O)(=O)C(C)C)c2N)cc1 | 8.21%
CCCCn1c(N)c(N(CC)C(=O)c2ccc(N(C)S(=O)(=O)c3ccc(C)cc3)cc2)c(=O)[nH]c1=O | -2.35%
